A lower IC50 marks a more sensitive line; a fit beyond the top or the lowest dose is shown as a bound at that dose. For AUC the same curve is integrated over the 256-fold range of doses and scaled to a fraction; values near 1 show little effect. The top dose, if marked as inferred, was calculated from the reported fits.
Columns and labels:
Assay in all cases: Viability of human cancer cell lines after 72 h of drug (GDSC screen)
[1] = compound: CCc1cc(Nc2nccc(-c3c(-c4ccc(OC)c(C(=O)Nc5c(F)cccc5F)c4)nc4ccccn34)n2)c(OC)cc1N1CCC(N2CCN(S(C)(=O)=O)CC2)CC1 [GSK-1904529A]; details: top dose 1.024 µM; top dose inferred
Protocol: (§1)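 Human cancer cell lines in 384-well plates, medium with 10% serum, drug for 72 h over a 256-fold dose range (nine 2-fold or five 4-fold steps up to the top dose). Adherent lines were fixed and stained with the nucleic acid dye Syto60, suspension lines read with resazurin; signal relative to control wells, capped at 0 and 100%. One two-parameter sigmoid per drug and line, fitted in a mixed model over all curves with the slope shared within a line.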

[2] = compound: COc1ccccc1S(=O)(=O)Nc1ccc2c(c1)CN(C)C(=O)N2 [PFI-1]; details: top dose 10 µM; top dose inferred
Protocol: as §1

[3] = compound: CCN1CCN(Cc2ccc(NC(=O)c3ccc(C)c(Oc4ccnc5[nH]ccc45)c3)cc2C(F)(F)F)CC1 [NG-25]; details: top dose 10.24 µM; top dose inferred
Protocol: as §1

[4] = compound: Cn1cncc1[C@@](N)(c1ccc(Cl)cc1)c1ccc2c(c1)c(-c1cccc(Cl)c1)cc(=O)n2C [Tipifarnib]; details: top dose 16 µM; top dose inferred
Protocol: as §1

| Cell Line | AUC [1] | IC50 [1] [µM] | AUC [2] | IC50 [2] [µM] | AUC [3] | IC50 [3] [µM] | AUC [4] | IC50 [4] [µM] |
| --- | --- | --- | --- | --- | --- | --- | --- | --- |
| D-392MG (glioma, adherent) | 0.978 | > 1.02 | 0.885 | > 10 | 0.815 | 8.44 | 0.951 | > 16 |
| NCI-H2110 (non-small cell lung carcinoma, adherent) | 0.977 | > 1.02 | 0.932 | > 10 | 0.627 | 1.44 | 0.634 | 2.37 |
| KYSE-410 (oesophagus, adherent) | 0.982 | > 1.02 | 0.783 | 4.52 | 0.954 | > 10.2 | 0.558 | 1.45 |
| EN (endometrium, adherent) | 0.953 | > 1.02 | 0.982 | > 10 | 0.842 | 10.1 | 0.726 | 5.27 |
| Hs633T (fibrosarcoma, adherent) | 0.991 | > 1.02 | 0.868 | 6.47 | 0.836 | 5.1 | 0.34 | 0.395 |
| EFM-19 (breast, adherent) | 0.923 | > 1.02 | 0.795 | 7.67 | 0.757 | 5.33 | 0.555 | 1.53 |
| SNU-449 (liver, adherent) | 0.874 | > 1.02 | 0.926 | > 10 | 0.791 | 5.08 | 0.41 | 0.555 |
| HT-1197 (bladder, adherent) | 0.931 | > 1.02 | 0.846 | 9.43 | 0.983 | > 10.2 | 0.727 | 5.06 |
| PFSK-1 (medulloblastoma, adherent) | 0.986 | > 1.02 | 0.787 | 4.65 | 0.953 | > 10.2 | 0.894 | > 16 |
| NCI-H441 (lung adenocarcinoma, adherent) | 0.978 | > 1.02 | 0.929 | > 10 | 0.981 | > 10.2 | 0.671 | 3.66 |
| SiHa (cervix, adherent) | 0.987 | > 1.02 | 0.822 | 7.09 | 0.987 | > 10.2 | 0.896 | > 16 |
| OV-90 (ovary, adherent) | 0.966 | > 1.02 | 0.853 | > 10 | 0.971 | > 10.2 | 0.788 | 9.27 |
| TGBC11TKB (stomach, adherent) | 0.992 | > 1.02 | 0.969 | > 10 | 0.973 | > 10.2 | 0.973 | > 16 |
| DK-MG (glioma, adherent) | 0.978 | > 1.02 | 0.814 | 9.25 | 0.9 | > 10.2 | 0.975 | > 16 |
| RERF-LC-Sq1 (lung squamous cell carcinoma, adherent) | 0.976 | > 1.02 | 0.904 | > 10 | 0.936 | > 10.2 | 0.897 | > 16 |
| 769-P (kidney, adherent) | 0.974 | > 1.02 | 0.906 | > 10 | 0.85 | 8.9 | 0.653 | 2.77 |
| PANC-10-05 (pancreas, adherent) | 0.947 | > 1.02 | 0.875 | > 10 | 0.958 | > 10.2 | 0.663 | 3.25 |
| PCI-38 (head and neck, adherent) | 0.979 | > 1.02 | 0.78 | 4.14 | 0.825 | 6.19 | 0.866 | 14.5 |
| SKN-3 (head and neck, adherent) | 0.983 | > 1.02 | 0.786 | 5.19 | 0.853 | > 10.2 | 0.98 | > 16 |
| COLO-680N (oesophagus, adherent) | 0.98 | > 1.02 | 0.933 | > 10 | 0.986 | > 10.2 | 0.603 | 2.02 |

| Cell Line | AUC [1] | IC50 [1] [µM] | AUC [2] | IC50 [2] [µM] | AUC [3] | IC50 [3] [µM] | AUC [4] | IC50 [4] [µM] |
| --- | --- | --- | --- | --- | --- | --- | --- | --- |
| NCI-H196 (small cell lung carcinoma, adherent) | 0.988 | > 1.02 | 0.979 | > 10 | 0.895 | > 10.2 | 0.928 | > 16 |
| CHSA8926 (chondrosarcoma, adherent) | 0.98 | > 1.02 | 0.907 | > 10 | 0.948 | > 10.2 | 0.899 | > 16 |
| RMG-I (ovary, adherent) | 0.981 | > 1.02 | 0.654 | 1.8 | 0.81 | 6.5 | 0.865 | > 16 |
| NCI-H1693 (lung adenocarcinoma, adherent) | 0.972 | > 1.02 | 0.874 | > 10 | 0.916 | > 10.2 | 0.875 | > 16 |
| CAL-27 (head and neck, adherent) | 0.98 | > 1.02 | 0.77 | 3.87 | 0.958 | > 10.2 | 0.564 | 1.5 |
| LU-135 (small cell lung carcinoma, suspension) | 0.98 | > 1.02 | 0.967 | > 10 | 0.828 | 4.91 | 0.697 | 3.19 |
| HCT-116 (large intestine, adherent) | 0.986 | > 1.02 | 0.869 | 8.42 | 0.814 | 5.21 | 0.744 | 4.79 |
| OVTOKO (ovary, adherent) | 0.978 | > 1.02 | 0.711 | 2.93 | 0.879 | > 10.2 | 0.629 | 2.5 |
| HLE (liver, adherent) | 0.922 | > 1.02 | 0.904 | > 10 | 0.859 | 7.75 | 0.308 | 0.299 |
| NCI-H1573 (lung adenocarcinoma, adherent) | 0.991 | > 1.02 | 0.923 | > 10 | 0.985 | > 10.2 | 0.984 | > 16 |
| OE33 (oesophagus, adherent) | 0.948 | > 1.02 | 0.929 | > 10 | 0.874 | > 10.2 | 0.775 | 7.57 |
| NCI-H1781 (lung adenocarcinoma, adherent) | 0.985 | > 1.02 | 0.985 | > 10 | 0.912 | > 10.2 | 0.772 | 6.17 |
| DMS-273 (small cell lung carcinoma, adherent) | 0.929 | > 1.02 | 0.976 | > 10 | 0.741 | 3.28 | 0.403 | 0.534 |
| JURL-MK1 (chronic myeloid leukaemia, suspension) | 0.975 | > 1.02 | 0.959 | > 10 | 0.027 | < 0.04 | 0.638 | 2.41 |
| T-T (oesophagus, adherent) | 0.949 | > 1.02 | 0.937 | > 10 | 0.838 | 6.87 | 0.425 | 0.626 |
| Hs-578-T (breast, adherent) | 0.987 | > 1.02 | 0.89 | > 10 | 0.984 | > 10.2 | 0.836 | 11.6 |
| H2795 (mesothelioma, adherent) | 0.982 | > 1.02 | 0.843 | 6.91 | 0.869 | 9.24 | 0.444 | 0.706 |
| HGC-27 (stomach, adherent) | 0.927 | > 1.02 | 0.758 | 2.99 | 0.869 | 7.14 | 0.55 | 1.34 |
| NCI-H2291 (lung adenocarcinoma, adherent) | 0.983 | > 1.02 | 0.944 | > 10 | 0.982 | > 10.2 | 0.976 | > 16 |
| LoVo (large intestine, adherent) | 0.984 | > 1.02 | 0.883 | > 10 | 0.918 | > 10.2 | 0.313 | 0.298 |

| Cell Line | AUC [1] | IC50 [1] [µM] | AUC [2] | IC50 [2] [µM] | AUC [3] | IC50 [3] [µM] | AUC [4] | IC50 [4] [µM] |
| --- | --- | --- | --- | --- | --- | --- | --- | --- |
| HeLa (cervix, adherent) | 0.989 | > 1.02 | 0.92 | > 10 | 0.98 | > 10.2 | 0.719 | 4.04 |
| HOP-92 (large cell lung carcinoma, adherent) | 0.971 | > 1.02 | 0.82 | 6.93 | 0.985 | > 10.2 | 0.722 | 4.76 |
| U031 (kidney, adherent) | 0.964 | > 1.02 | 0.552 | 0.87 | 0.981 | > 10.2 | 0.633 | 2.36 |
| K2 (melanoma, adherent) | 0.955 | > 1.02 | 0.827 | 8.68 | 0.958 | > 10.2 | 0.752 | 6.72 |
| SK-MEL-30 (melanoma, adherent) | 0.974 | > 1.02 | 0.863 | 9.42 | 0.872 | > 10.2 | 0.679 | 3.25 |
| NCI-H292 (lung adenocarcinoma, adherent) | 0.973 | > 1.02 | 0.717 | 2.98 | 0.684 | 2.36 | 0.707 | 4.4 |
| ChaGo-K-1 (non-small cell lung carcinoma, adherent) | 0.944 | > 1.02 | 0.942 | > 10 | 0.923 | > 10.2 | 0.571 | 1.61 |
| NCI-H2444 (non-small cell lung carcinoma, adherent) | 0.988 | > 1.02 | 0.937 | > 10 | 0.987 | > 10.2 | 0.93 | > 16 |
| CaR-1 (large intestine, adherent) | 0.945 | > 1.02 | 0.959 | > 10 | 0.965 | > 10.2 | 0.734 | 6.65 |
| LK-2 (lung squamous cell carcinoma, adherent) | 0.986 | > 1.02 | 0.91 | > 10 | 0.923 | > 10.2 | 0.493 | 0.957 |
| CCF-STTG1 (glioma, adherent) | 0.985 | > 1.02 | 0.982 | > 10 | 0.851 | 7.92 | 0.826 | 9.75 |
| CAL-54 (kidney, adherent) | 0.913 | > 1.02 | 0.788 | 5.08 | 0.824 | 7.26 | 0.791 | 8.32 |
| HCC-827 (lung adenocarcinoma, adherent) | 0.94 | > 1.02 | 0.973 | > 10 | 0.968 | > 10.2 | 0.808 | 9.85 |
| PANC-02-03 (pancreas, adherent) | 0.981 | > 1.02 | 0.805 | 6.28 | 0.896 | > 10.2 | 0.847 | 15.6 |
| JHH-6 (liver, adherent) | 0.972 | > 1.02 | 0.86 | 8.61 | 0.857 | 8.54 | 0.808 | 8.41 |
| SK-LU-1 (lung adenocarcinoma, adherent) | 0.963 | > 1.02 | 0.92 | > 10 | 0.897 | > 10.2 | 0.677 | 3.6 |
| JHH-7 (liver, adherent) | 0.972 | > 1.02 | 0.844 | 6.5 | 0.853 | 7.23 | 0.474 | 0.851 |
| G-401 (kidney, adherent) | 0.853 | 0.926 | 0.878 | > 10 | 0.672 | 2.04 | 0.406 | 0.539 |
| SKN (uterus, adherent) | 0.982 | > 1.02 | 0.829 | 8.1 | 0.982 | > 10.2 | 0.818 | 11.5 |
| NCI-H1993 (lung adenocarcinoma, adherent) | 0.976 | > 1.02 | 0.878 | > 10 | 0.964 | > 10.2 | 0.85 | > 16 |

From the supplement of paper PMC4967469
